US11365205B2 (Aurigene Discovery Technologies Limited, priority 2018, dated 2022)

These molecules were tested against PRMT5/MEP50 Complex (Homo sapiens (Human), UniProt O14744) (assay: PRMT5 inhibition based on TR-FRET assay). Conditions: 32 nM PRMT5:MEP50, 50 nM Histone-H4 peptide, 1 μM SAM.
Format: biochemical
Description: PRMT5 Inhibition Based on TR-FRET Assay:
Protein arginine methyltransferase 5 (PRMT5) is a type II arginine methyltransferase that catalyze mono- and symmetric demethylation on arginine residues of histone or non-histone proteins in presence of S-adenosylmethionine (AdoMet or SAM) a cofactor responsible for donating the methyl group. PRMT5 is reported to be overexpressed in several human cancers. To identify compounds that inhibit the PRMT5 and decrease its activity, a TR-FRET based assay has been established. Time-resolved fluorescence resonance energy transfer (TR-FRET) HTS assays are homogeneous proximity assays where the interaction of two dye-labeled binding partners is detected by the energy transfer between a donor and an acceptor dye and the subsequent light emission by the acceptor dye. PRMT5 catalyzes Histone H4 peptide which is biotin tagged to the Lysine amino acid at carboxyl end, in presence of S-adenosyl-1-methionine (SAM) to methylate the peptide. The antibody specific to mono methylated H4 peptide (H4R3) with Ig conjugate binds to the methylated peptide, indirectly binding to the Europium lanthanide. SureLight Allophycocyanin-Streptavidin binds to the biotin tag of the peptide, therefore accepting the energy transferred from the Europium lanthanide. This energy transfer between Europium to SureLight Allophycocyanin is a direct measure of the activity/inhibition of the PRMT5 enzyme.
Assay buffer: 20 mM BICINE (pH 7.6), 25 mM NaCl, 2 mM DTT, 0.01% Tween-20 and 0.01% BSA.
The compound dilutions were prepared as 7.5% DMSO stock solutions in assay buffer. To 2 μL (7.5×) of test compound, 5 μL of PRMT5 enzyme prepared in assay buffer (Final concentration of 32 nM in 15 μL reaction volume) was added and allowed for 30 minutes pre-incubation time in a white polystyrene 384-well plate at room temperature. […] The plates were then read on Victor-3 with Excitation at 340 nm and Emissions collected at 615 and 665 nm in TR-FRET protocol. […]

UniProt O14744, sequence (O14744 whole entry): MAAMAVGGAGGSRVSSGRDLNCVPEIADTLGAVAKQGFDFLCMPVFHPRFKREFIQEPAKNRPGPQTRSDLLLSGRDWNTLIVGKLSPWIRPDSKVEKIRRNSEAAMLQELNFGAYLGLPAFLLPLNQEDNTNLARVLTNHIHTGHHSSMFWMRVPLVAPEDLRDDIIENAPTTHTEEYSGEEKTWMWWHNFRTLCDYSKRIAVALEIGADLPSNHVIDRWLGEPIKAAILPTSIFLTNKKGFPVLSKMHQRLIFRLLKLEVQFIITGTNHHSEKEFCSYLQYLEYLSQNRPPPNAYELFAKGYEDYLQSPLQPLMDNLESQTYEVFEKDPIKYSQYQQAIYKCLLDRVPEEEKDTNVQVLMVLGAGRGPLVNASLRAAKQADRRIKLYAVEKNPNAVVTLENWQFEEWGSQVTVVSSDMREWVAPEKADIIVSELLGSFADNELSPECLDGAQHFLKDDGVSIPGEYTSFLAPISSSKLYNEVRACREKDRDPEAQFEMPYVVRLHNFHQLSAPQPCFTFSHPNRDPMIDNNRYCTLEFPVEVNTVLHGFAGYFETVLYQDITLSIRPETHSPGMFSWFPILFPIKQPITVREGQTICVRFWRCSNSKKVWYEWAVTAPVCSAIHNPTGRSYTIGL
UniProt O14744, sequence (Q9BQA1 whole entry partner): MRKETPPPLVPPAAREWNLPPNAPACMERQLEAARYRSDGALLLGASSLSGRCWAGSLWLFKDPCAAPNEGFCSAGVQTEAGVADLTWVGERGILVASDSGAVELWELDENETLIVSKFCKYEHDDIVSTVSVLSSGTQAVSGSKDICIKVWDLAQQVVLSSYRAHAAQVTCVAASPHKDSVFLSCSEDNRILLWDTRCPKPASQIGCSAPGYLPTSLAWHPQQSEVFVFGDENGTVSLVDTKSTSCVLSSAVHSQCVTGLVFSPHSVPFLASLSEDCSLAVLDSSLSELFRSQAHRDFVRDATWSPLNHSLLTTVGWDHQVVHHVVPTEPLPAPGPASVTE

Row | IC50 [nM] | Structure (SMILES)
1 | 1480 | N#Cc1ccc(CN2CCN(CC(O)CN3CCc4ccccc4C3)C2=O)cc1 (single isomer, unassigned) [Example 18b, 4-((3-(3-(3,4-dihydroisoquinolin-2(1H)-yl)-2-hydroxypropyl)-2-oxoimidazolidin-1-yl)methyl)benzonitrile]
2 | 310 | Cc1ccc(CN2CCN(CC(O)CN3CCc4ccccc4C3)C2=O)cn1 (stereo not drawn) [Example 19, 1-(3-(3,4-dihydroisoquinolin-2(1H)-yl)-2-hydroxypropyl)-3-((6-methylpyridin-3-yl)methyl)imidazolidin-2-one]
3 | 250 | N#Cc1ccc(CN2CCN(CC(O)CN3CCc4ccccc4C3)C2=O)cn1 (stereo not drawn) [Example 21, 5-((3-(3-(3,4-dihydroisoquinolin-2(1H)-yl)-2-hydroxypropyl)-2-oxoimidazolidin-1-yl)methyl)picolinonitrile]
